# The other results are listed elsewhere or left out.
# B1: NcCVNHO (Neurospora crassa), Q7S6U4 (protein)
# chain: MSFHVTAEDARIEVRDNRTILFARLRREDGEWNDASYELDQIIGNNDGHFQWGGQNFTETAEDIRFHPKEGAAEQPILRARLRDCNGEFHDRDVNLTEIVENVNGEFQAKF
# Tests used:
# Assay in all cases: glycan array binding signal (z-score within array); higher = stronger binding
# Conditions in all cases: glycan notation: IUPAC condensed, linker removed
# Man(b1-4)GlcNAc = target: Man(b1-4)GlcNAc
# In short: (§1)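 Glycan array data were curated from 3228 arrays in the Consortium for Functional Glycomics database and kept only where the protein sequence was available. Glycan names were converted to IUPAC-condensed notation, and columns mapping to the same glycan were averaged. The binding signal is a within-array Z-score, averaged across arrays of the same protein sequence at different concentrations or buffers and across linkers. Negative Z-scores can be read as non-binding.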
# Neu5Ac(a2-3)Gal = target: Neu5Ac(a2-3)Gal
# In short: as §1
# [1] = target: Neu5Ac(a2-3)Gal(b1-3)GalNAc
# In short: as §1
# [2] = target: Neu5Ac(a2-3)Gal(b1-3)GalNAc(b1-3)Gal(a1-4)Gal(b1-4)Glc
# In short: as §1
# [3] = target: Neu5Ac(a2-3)Gal(b1-3)GalNAc(b1-3)Gal(b1-4)GlcNAc
# In short: as §1
# [4] = target: Neu5Ac(a2-3)Gal(b1-3)GalNAc(b1-4)[Neu5Ac(a2-3)]Gal(b1-4)Glc
# In short: as §1
# [5] = target: Neu5Ac(a2-3)Gal(b1-3)GalNAc6S
# In short: as §1
# [6] = target: Neu5Ac(a2-3)Gal(b1-3)GlcNAc
# In short: as §1
# [7] = target: Neu5Ac(a2-3)Gal(b1-3)GlcNAc(b1-3)Gal(b1-3)GlcNAc
# In short: as §1
# [8] = target: Neu5Ac(a2-3)Gal(b1-3)GlcNAc(b1-3)Gal(b1-4)GlcNAc
# In short: as §1
# [9] = target: Neu5Ac(a2-3)Gal(b1-3)GlcNAc6S
# In short: as §1
# [10] = target: Neu5Ac(a2-3)Gal(b1-3)[Fuc(a1-4)]GlcNAc
# In short: as §1
# [11] = target: Neu5Ac(a2-3)Gal(b1-3)[Fuc(a1-4)]GlcNAc(b1-3)Gal(b1-4)[Fuc(a1-3)]GlcNAc
# In short: as §1
# [12] = target: Neu5Ac(a2-3)Gal(b1-3)[Neu5Ac(a2-3)Gal(b1-4)]GlcNAc
# In short: as §1
# [13] = target: Neu5Ac(a2-3)Gal(b1-3)[Neu5Ac(a2-6)]GalNAc
# In short: as §1
# Neu5Ac(a2-3)Gal(b1-4)Glc = target: Neu5Ac(a2-3)Gal(b1-4)Glc
# In short: as §1
# [14] = target: Neu5Ac(a2-3)Gal(b1-4)GlcNAc
# In short: as §1
# [15] = target: Neu5Ac(a2-3)Gal(b1-4)GlcNAc(b1-2)Man(a1-3)[GlcNAc(b1-2)Man(b1-4)GlcNAc(b1-2)Man(a1-6)]Man(b1-4)GlcNAc(b1-4)GlcNAc
# In short: as §1
# [16] = target: Neu5Ac(a2-3)Gal(b1-4)GlcNAc(b1-2)Man(a1-3)[Neu5Ac(a2-3)Gal(b1-4)GlcNAc(b1-2)Man(a1-6)]Man(b1-4)GlcNAc(b1-4)GlcNAc
# In short: as §1
# [17] = target: Neu5Ac(a2-3)Gal(b1-4)GlcNAc(b1-2)Man(a1-3)[Neu5Ac(a2-6)Gal(b1-4)GlcNAc(b1-2)Man(a1-6)]Man(b1-4)GlcNAc(b1-4)GlcNAc
# In short: as §1
# [18] = target: Neu5Ac(a2-3)Gal(b1-4)GlcNAc(b1-3)Gal(b1-3)GlcNAc
# In short: as §1
# [19] = target: Neu5Ac(a2-3)Gal(b1-4)GlcNAc(b1-3)Gal(b1-4)GlcNAc
# In short: as §1
# [20] = target: Neu5Ac(a2-3)Gal(b1-4)GlcNAc(b1-3)Gal(b1-4)GlcNAc(b1-3)Gal(b1-4)GlcNAc
# In short: as §1
# [21] = target: Neu5Ac(a2-3)Gal(b1-4)GlcNAc(b1-3)Gal(b1-4)[Fuc(a1-3)]GlcNAc
# In short: as §1
# [22] = target: Neu5Ac(a2-3)Gal(b1-4)GlcNAc(b1-6)[Gal(b1-3)]GalNAc
# In short: as §1
# [23] = target: Neu5Ac(a2-3)Gal(b1-4)GlcNAc(b1-6)[Neu5Ac(a2-3)Gal(b1-3)]GalNAc
# In short: as §1
# [24] = target: Neu5Ac(a2-3)Gal(b1-4)GlcNAc6S
# In short: as §1
# [25] = target: Neu5Ac(a2-3)Gal(b1-4)[Fuc(a1-3)]GlcNAc
# In short: as §1
# [26] = target: Neu5Ac(a2-3)Gal(b1-4)[Fuc(a1-3)]GlcNAc(b1-3)Gal
# In short: as §1
# [27] = target: Neu5Ac(a2-3)Gal(b1-4)[Fuc(a1-3)]GlcNAc(b1-3)Gal(b1-4)GlcNAc
# In short: as §1
# [28] = target: Neu5Ac(a2-3)Gal(b1-4)[Fuc(a1-3)]GlcNAc(b1-3)Gal(b1-4)[Fuc(a1-3)]GlcNAc(b1-3)Gal(b1-4)[Fuc(a1-3)]GlcNAc
# In short: as §1
# [29] = target: Neu5Ac(a2-3)Gal(b1-4)[Fuc(a1-3)]GlcNAc(b1-6)[Gal(b1-3)]GalNAc
# In short: as §1
# [30] = target: Neu5Ac(a2-3)Gal(b1-4)[Fuc(a1-3)]GlcNAc6S
# In short: as §1
# [31] = target: Neu5Ac(a2-3)Gal6S(b1-4)GlcNAc
# In short: as §1
# [32] = target: Neu5Ac(a2-3)Gal6S(b1-4)[Fuc(a1-3)]GlcNAc
# In short: as §1
# Neu5Ac(a2-3)GalNAc = target: Neu5Ac(a2-3)GalNAc
# In short: as §1
# [33] = target: Neu5Ac(a2-3)GalNAc(b1-4)GlcNAc
# In short: as §1
# [34] = target: Neu5Ac(a2-3)[GalNAc(b1-4)]Gal(b1-4)Glc
# In short: as §1
# [35] = target: Neu5Ac(a2-3)[GalNAc(b1-4)]Gal(b1-4)GlcNAc
# In short: as §1
# [36] = target: Neu5Ac(a2-3)[Neu5Ac(a2-6)]GalNAc
# In short: as §1
# Neu5Ac(a2-6)Gal = target: Neu5Ac(a2-6)Gal
# In short: as §1
# Neu5Ac(a2-6)Gal(b1-4)Glc = target: Neu5Ac(a2-6)Gal(b1-4)Glc
# In short: as §1
# [37] = target: Neu5Ac(a2-6)Gal(b1-4)GlcNAc
# In short: as §1
# [38] = target: Neu5Ac(a2-6)Gal(b1-4)GlcNAc(b1-2)Man(a1-3)[Gal(b1-4)GlcNAc(b1-2)Man(a1-6)]Man(b1-4)GlcNAc(b1-4)GlcNAc
# In short: as §1
# [39] = target: Neu5Ac(a2-6)Gal(b1-4)GlcNAc(b1-2)Man(a1-3)[GlcNAc(b1-2)Man(a1-6)]Man(b1-4)GlcNAc(b1-4)GlcNAc
# In short: as §1
binder,measurement,setting,value
B1,glycan array binding signal (z-score),Man(b1-4)GlcNAc,-0.233
same,glycan array binding signal (z-score),Neu5Ac(a2-3)Gal,-0.234
same,glycan array binding signal (z-score),[1],-0.214
same,glycan array binding signal (z-score),[2],-0.21
same,glycan array binding signal (z-score),[3],-0.264
same,glycan array binding signal (z-score),[4],-0.244
same,glycan array binding signal (z-score),[5],-0.226
same,glycan array binding signal (z-score),[6],-0.217
same,glycan array binding signal (z-score),[7],-0.176
same,glycan array binding signal (z-score),[8],-0.183
same,glycan array binding signal (z-score),[9],-0.232
same,glycan array binding signal (z-score),[10],-0.242
same,glycan array binding signal (z-score),[11],0.291
same,glycan array binding signal (z-score),[12],-0.067
same,glycan array binding signal (z-score),[13],-0.196
same,glycan array binding signal (z-score),Neu5Ac(a2-3)Gal(b1-4)Glc,0.907
same,glycan array binding signal (z-score),[14],-0.24
same,glycan array binding signal (z-score),[15],-0.182
same,glycan array binding signal (z-score),[16],-0.299
same,glycan array binding signal (z-score),[17],-0.143
same,glycan array binding signal (z-score),[18],-0.127
same,glycan array binding signal (z-score),[19],-0.237
same,glycan array binding signal (z-score),[20],-0.227
same,glycan array binding signal (z-score),[21],-0.212
same,glycan array binding signal (z-score),[22],-0.173
same,glycan array binding signal (z-score),[23],-0.195
same,glycan array binding signal (z-score),[24],-0.186
same,glycan array binding signal (z-score),[25],-0.227
same,glycan array binding signal (z-score),[26],-0.241
same,glycan array binding signal (z-score),[27],-0.206
same,glycan array binding signal (z-score),[28],-0.194
same,glycan array binding signal (z-score),[29],-0.172
same,glycan array binding signal (z-score),[30],-0.231
same,glycan array binding signal (z-score),[31],-0.237
same,glycan array binding signal (z-score),[32],-0.229
same,glycan array binding signal (z-score),Neu5Ac(a2-3)GalNAc,-0.238
same,glycan array binding signal (z-score),[33],-0.239
same,glycan array binding signal (z-score),[34],-0.249
same,glycan array binding signal (z-score),[35],-0.236
same,glycan array binding signal (z-score),[36],-0.242
same,glycan array binding signal (z-score),Neu5Ac(a2-6)Gal,-0.265
same,glycan array binding signal (z-score),Neu5Ac(a2-6)Gal(b1-4)Glc,-0.227
same,glycan array binding signal (z-score),[37],-0.209
same,glycan array binding signal (z-score),[38],-0.192
same,glycan array binding signal (z-score),[39],-0.194

# From the supplement of paper PMC8728848
